In patent publication US12410208B2, “(2-acetamidyl)thio-beta-D-galactopyranoside derivatives” (Idorsia Pharmaceuticals Ltd, priority 2020, dated 2025):
The source holds more than one record for some entries. The other results are left out here. There may be further records. The values listed for one entry appear to be repeats (runs, samples, wells or individuals).

Molecular target: human Gal-1 (hGal-1) (Homo sapiens, UniProt P09382)
Test: Competitive binding assay: biotinylated hGal-1 binding to microplate-adsorbed asialofetuin (ASF), spectrophotometric
Conditions: hGal-1 binding to asialofetuin; Table 15; R and S epimers of selected Examples also listed; read-out: IC50 (Galectin-1 inhibition)
Procedure: Biological Assay Evaluation of Compound Inhibitory Activity (IC50)
The inhibitory activity of compounds is determined in competitive binding assays. This spectrophotometric assay measures the binding of biotinylated human Gal-3 (hGal-3) or human Gal-1 (hGal-1), respectively, to a microplate-adsorbed glycoprotein, asialofetuin (ASF) (Proc Natl Acad Sci USA. 2013 Mar. 26; 110(13):5052-7.).
Briefly, compounds are serially diluted in DMSO (working dilutions). ASF-coated 384well plates are supplemented with 22.8 μL/well of biotinylated hGal-3 or hGal-1 in assay buffer (i.e. 300-1000 ng/mL biotinylated hGal-3 or hGal-1) to which 1.2 μL of compound working dilutions are added and mixed.
Plates are incubated for 3 hours at 4° C., then washed with cold assay buffer (3×50 uL), incubated for 1 hour with 25 μL/well of a streptavidin-peroxidase solution (diluted in assay buffer to 80 ng/mL) at 4° C., followed by further washing steps with assay buffer (3×50 uL). Finally, 25 μL/well of ABTS substrate is added.
The calculated IC50 values may fluctuate depending on the daily assay performance. Fluctuations of this kind are known to those skilled in the art. IC50 values from several measurements are given as mean values.

human Gal-1 (hGal-1), sequence (P09382 whole entry): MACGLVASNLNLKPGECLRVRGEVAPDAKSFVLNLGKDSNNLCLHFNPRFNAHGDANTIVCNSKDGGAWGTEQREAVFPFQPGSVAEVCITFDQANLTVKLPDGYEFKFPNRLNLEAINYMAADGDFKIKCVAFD

CCN(C(=O)C(S[C@@H]1O[C@H](CO)[C@H](O)[C@H](n2cc(-c3cc(F)c(F)c(F)c3)nn2)[C@H]1OC)C1(O)CCC(F)(F)CC1)C1CC1 (stereo partly shown) [Example 2.44.238.I.]
IC50: 60 nM and 11 µM [one table]
